Measured values taken from PubChem BioAssay AID488969 (Vanderbilt High Throughput Screening Facility, 2010).
In all, about 110,000 compounds were measured (“z-score”: median about -0.1, highest 2% from about 2 on). Some of the results follow.

target: Metabotropic glutamate receptor 8 (Rattus norvegicus) (UniProt P70579); experiment: mGluR8 Gi/Go-coupled signaling modulation – cell-based, rat, thallium flux, HTS, primary screen (AID 488969); details: HEK293 rat mGluR8, GIRK (G protein-gated inwardly rectifying potassium channel) thallium flux, FluoZin2; at 10 µM; stronger effect = higher value; submaximal glutamate (EC20) added with thallium
Sequence of UniProt P70579 (P70579 whole entry, looked up): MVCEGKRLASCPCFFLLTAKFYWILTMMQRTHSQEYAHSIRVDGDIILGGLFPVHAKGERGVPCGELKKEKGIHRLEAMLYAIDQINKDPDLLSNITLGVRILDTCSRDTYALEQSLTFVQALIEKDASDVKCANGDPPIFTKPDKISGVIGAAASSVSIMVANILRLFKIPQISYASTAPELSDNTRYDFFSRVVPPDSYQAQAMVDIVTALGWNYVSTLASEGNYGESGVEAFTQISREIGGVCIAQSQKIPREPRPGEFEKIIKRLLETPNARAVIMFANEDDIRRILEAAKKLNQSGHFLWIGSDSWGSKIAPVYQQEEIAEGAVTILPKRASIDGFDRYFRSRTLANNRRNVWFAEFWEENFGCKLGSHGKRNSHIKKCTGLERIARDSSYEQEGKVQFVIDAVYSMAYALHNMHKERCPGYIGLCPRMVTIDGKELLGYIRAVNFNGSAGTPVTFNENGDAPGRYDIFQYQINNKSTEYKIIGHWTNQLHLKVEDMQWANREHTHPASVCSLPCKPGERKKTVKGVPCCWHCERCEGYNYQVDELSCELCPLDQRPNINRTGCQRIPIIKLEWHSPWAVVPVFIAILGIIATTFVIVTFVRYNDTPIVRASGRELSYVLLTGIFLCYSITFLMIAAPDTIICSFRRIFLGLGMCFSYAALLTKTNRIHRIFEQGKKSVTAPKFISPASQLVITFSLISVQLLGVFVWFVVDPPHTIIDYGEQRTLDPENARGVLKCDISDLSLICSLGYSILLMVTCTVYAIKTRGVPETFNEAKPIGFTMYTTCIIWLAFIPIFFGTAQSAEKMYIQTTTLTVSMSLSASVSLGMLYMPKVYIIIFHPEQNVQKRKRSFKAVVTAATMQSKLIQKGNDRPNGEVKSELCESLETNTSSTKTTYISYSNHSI

SMILES | z-score
CCC1Cc2c(nc3c4c(nc(N5CCOCC5)c(C#N)c24)NC(C)=N3)O1 (stereo not given) | -0.387
COc1ccc(NC(=O)Nc2ncn(Cc3cccc(C(F)(F)F)c3)n2)cc1OC | 0.0572
C=CCOc1nc2c(c(=O)n(C)c(=O)n2C)n1C | -0.13
Cc1ccc(S(=O)(=O)N[C@H](C(=O)N2CCC3(O)CCCCC3C2)c2ccccc2)cc1 (stereo not given in full) | 0.0721
Cc1ccc(-n2c(O)c(/C=N/Nc3ccc(S(=O)(=O)N4CCOCC4)cc3[N+](=O)[O-])c3ccccc3c2=O)c(C)c1 | -0.182
CC1(C)CNC(=O)c2sc(NC(=O)CN3CCOCC3)nc2C1 | -0.297
CCOCCCNc1nc2c([nH]1)c(=O)n(C)c(=O)n2C | 0.00722
CCCc1ccc(OCC(O)CN2CCN(c3ccccc3)CC2)cc1 (stereo not given) | -0.0136
C=CCn1c(SCC(=O)Nc2ccc3c(c2)OCO3)nnc1-c1ccccc1O | -0.86
Oc1oc(-c2ccccc2)nc1/C=N/c1nccs1 | 1.54
COc1ccc(-n2c(=O)c3c4c(sc3n3c(C)nnc23)CCCC4)cc1 | -0.147
O=S(=O)(Nn1cnnc1)c1ccccc1 | -0.313
CN(CC(=O)N1CCN(c2ccccc2F)CC1)S(=O)(=O)c1cnc[nH]1 | -0.124
COc1ccc(-c2nnc(NC(=O)C3CCCO3)s2)cc1 (stereo not given) | -0.0181
Nc1ccc(-c2ccc(N)cc2C(F)(F)F)c(C(F)(F)F)c1 | -1.22
O=C(c1ccco1)N1CCN(C(=O)N2c3ccccc3Sc3ccccc32)CC1 | -0.17
CCc1ccc(NC(=O)CSC2=C(C#N)C(c3ccc4c(c3)OCO4)CC(=O)N2)cc1 (stereo not given) | 0.13
COCc1nnc(NC(=O)CCC2CCCCC2)s1 | 0.558
O=C(NNC(=O)C1CCCN(c2ncccn2)C1)c1ccc(F)cc1 (stereo not given) | 0.22
O=C(O)CCCC(=O)Nc1nc(-c2ccc(F)cc2)cs1 | -0.5
CCOC(=O)C1CCC2(CC1)C(C#N)=C(N)Oc1n[nH]c(C)c12 (stereo not given) | 0.0849
Cc1ccc(Sc2cc(Cl)nc(N)n2)cc1 | -0.159
S=c1[nH]nc(Cc2c[nH]c3ccccc23)o1 | 0.241
O=C(c1cccc(F)c1)N1CCN(C(=O)c2cc3ncc(Br)cn3n2)CC1 | -0.249
Cc1ccc(CN(Cc2ccco2)S(=O)(=O)c2ccc(S(=O)(=O)NCC3CCCO3)cc2)cc1 (stereo not given) | -0.00067
Cc1c(C=O)c2ccccn2c1C(=O)c1ccncc1 | -0.188
CC(C)CNC(=O)c1c2c(nc3ccccc13)-c1ccccc1CC2 | -0.265
Cc1ccc(NC(NC(=O)c2ccccc2[N+](=O)[O-])C(Cl)(Cl)Cl)cc1 (stereo not given) | -0.274

SMILES | z-score
Cc1ccc(SCc2nc(-c3ccccn3)no2)cc1 | -0.318
CCCS(=O)(=O)N1CCCC(C(=O)N2CCN(C(=O)OCC)CC2)C1 (stereo not given) | -0.0863
O=C(Nc1cccc2ccccc12)C1CCN(C(=O)NCc2ccccc2)CC1 | 0.124
CCCC(=O)O[C@@H]1C[C@@H](C)N(C(=O)c2ccccc2)c2ccc(C)cc21 | -0.411
COc1c(C)cccc1C(=O)Nc1ccc(CN2CCOCC2)cc1 | -0.359
CCc1ccc(OCC(=O)Nc2ccc(S(=O)(=O)N3CCCC3)cc2)c(Br)c1 | -0.0349
Cc1ccc(S(=O)(=O)c2nc(NC3CCS(=O)(=O)C3)sc2Cl)cc1 (stereo not given) | -0.0674
O=C1/C(=C/c2cccs2)N=C(c2cccs2)N1Nc1ccccc1 | -0.339
CCCCNCC(=O)Nc1ccc(NC(=O)CNCCCC)cc1 | -0.169
CCOC(=O)c1cc(-c2ccc(OC(F)F)cc2)nc2nc(SC)[nH]c(=O)c12 | -0.208
CCOC(=O)c1c(C)[nH]c(C(=O)OCC(=O)Nc2cc(C)c(Cl)cc2OC)c1C | -0.365
CCOC(=O)C1=C(C)NC2=C(C(=O)CC(C)(C)C2)C1c1ccc2c(c1)CCCN2C (stereo not given) | -0.347
O=C(NC(NC1CCS(=O)(=O)C1)C(=O)c1cccs1)c1ccccc1 (stereo not given) | -0.231
S=C(Nc1ccc(Br)cc1)N1CCN(C2CCCCC2)CC1 | -0.217
COc1ccc(S(=O)(=O)N(CC(=O)N2CCN(C)CC2)c2ccccc2)cc1OC | -0.159
CCC(=O)NC(C)C(c1cccs1)N1CCN(Cc2ccccc2)CC1 (stereo not given) | -0.19
Cc1cc(C)cc(N(CC(=O)Nc2cccc(C)n2)S(=O)(=O)c2c(C)noc2C)c1 | -0.992
CC1CCN(c2nc3c(c(=O)[nH]c(=O)n3C)n2Cc2ccccc2)CC1 | -0.127
Cn1cnnc1SCCC(=O)Nc1ccc(Cl)cc1 | 0.135
CCOC(=O)C1=NN(c2cccc(C)c2)C2(S1)SC(C(C)=O)=C(C)N2c1ccccc1 (stereo not given) | 0.713
COC(=O)c1cc(OC)c(OC)cc1NC(=O)c1cc(C)on1 | -0.396
COc1ccc(-c2cc(=O)n(-c3ccc([N+](=O)[O-])cc3)[nH]2)cc1 | -0.347
Cc1nnc(NC(=O)C2CCCN(S(=O)(=O)Cc3ccccc3)C2)s1 (stereo not given) | -0.175
O=C(NCCCN1CCOCC1)c1ccc(Br)s1 | 0.0846
O=C(CCC1CCCCC1)Nc1ccccc1O | 0.717
CCc1nnc(NC(=O)CSc2nccn2-c2cccc(C)c2)s1 | -0.255
Cc1[nH]c2ccccc2c1/C=N/NC(=O)c1cc(-c2cccs2)[nH]n1 | -0.101
